We go through 85 molecules from ChEMBL document CHEMBL4888484, “Replenishing the malaria drug discovery pipeline: Screening and hit evaluation of the MMV Hit Generation Library 1 (HGL1) against asexual blood stage Plasmodium falciparum ,using a nano luciferase reporter read-out” (2022).

The campaign covered roughly 150,000 compounds. About 540 (0.36%) showed an effect of 50% or more. The list shows a part of the results.

The test has as its system Plasmodium falciparum. Nature of the test: Primary screen in NF54 nanoGlo assay, in single point, at 2uM, 72h; a lower Z score goes with more inhibition. It counts as functional, Erythrocyte. To be noted: timepoint 72 hour.
A word on the % Inhibition: it is the change of the read-out against control, counted positive when it falls. On to `CCCn1nc(C(=O)N2CCCN(C[C@H]3CCCO3)CC2)ccc1=O`, for which the “% Inhibition” value is reported as -13% and the Z score was 1.91.
Taken in the same sequence, the figures for `CCOC(=O)[C@@H](NCc1ccc(OC)cc1)C(C)C` were 1% and -0.16.
With `CCn1c(=O)c(-c2noc(C(=O)NCc3ccc4c(c3)OCO4)n2)nn(-c2ccccc2)c1=O`, the “% Inhibition” value stood at 2% and the Z score is -0.37.
In the case of `Nc1snnc1-c1nc(C2CC2)cs1`, the “% Inhibition” value was determined as 28% and the Z score is -3.13.
With `CS(=O)(=O)CCC(=O)N(Cc1cnn(-c2ccccc2)c1)C1CC1`, the “% Inhibition” value was determined as 2% and the Z score is listed as -0.48.
Taken in the same sequence, the figures for `CCN(CC)C(=O)N1CCN(Cc2csc(NC(C)=O)n2)CC1` were -5% and 0.95.
For the molecule `Cn1ccc([C@H](NC(=O)C2CCOCC2)c2ccc(Cl)cc2)n1`, the “% Inhibition” value is -10% and the Z score is given as 1.02.
In the same order, the values of `Cc1cccc(Cn2nc(CC(N)=O)nc2-c2cc(C)oc2C)c1` are 4% and -0.77.
In the case of `CN(C(=O)OC(C)(C)C)[C@H]1CCCN(C(=O)C(C)(C)C)C1`, the “% Inhibition” value amounted to 11% and the Z score was -1.15.
On to `CCCNC(=O)Cn1ccc(Br)cc1=O`, for which the “% Inhibition” value was -7% and the Z score is recorded as 1.11.
`CN1CCN(CCCNc2ncnc3onc(-c4cc(F)cc(F)c4)c23)CC1`: the “% Inhibition” value was 6% and the Z score is -1.07.
For the molecule `CCOC(=O)Nc1scnc1C(=O)NCCn1cc(C)cn1`, the “% Inhibition” value is reported as -8% and the Z score was 1.34.
On to `Cc1c([C@@H](NC(=O)N2CCNC(=O)CC2)C(C)C)oc2ccccc12`, for which the “% Inhibition” value is given as -13% and the Z score amounted to 2.48.
In the same order, the values of `CC1(C)CN(C(=O)CCC2CC2)CC[C@]1(C)O` are -10% and 0.87.
In the same order, the values of `N#CC[C@H]1CCCN(C(=O)c2cc3c(o2)CCCC3)C1` are -9% and 1.23.
For the molecule `N#Cc1ccc(C(=O)NCCc2csc(-c3ccccc3)n2)nc1`, the “% Inhibition” value was found to be 31% and the Z score is -3.52.
Taken in the same sequence, the figures for `Cc1cnc(CCNC(=O)NC(C)(C)C)n1C1CCCCCCC1` were 4% and -0.58.
In the same order, the values of `O=C(OCc1nnnn1-c1ccccc1)c1cccnc1Nc1ccccc1F` are -9% and 1.28.
Taken in the same sequence, the figures for `O=C(Nc1cnc(-n2cccn2)nc1)c1cccc2ccccc12` were -10% and 1.63.
Take `Cc1c(C(=O)Nc2cccc(-c3nnco3)c2)cnn1C`: the “% Inhibition” value is -12% and the Z score amounted to 1.37.
In the same order, the values of `Cc1ccc(CN2CCCn3nc(C(=O)NC4CCN(Cc5ccccc5)CC4)cc3C2=O)cc1` are -9% and 1.1.
In the same order, the values of `CCc1nc2c(-c3ccncc3)nsc2c(=O)n1CC(=O)Nc1cccc(Cl)c1` are -16% and 2.51.
Taken in the same sequence, the figures for `Cn1cc(CN(Cc2ccc(Cl)cc2)Cc2ccc3cn[nH]c3c2)cn1` were -17% and 1.66.
In the case of `COC(=O)c1ccc(NCCOc2c(C)cccc2C)nn1`, the “% Inhibition” value is -5% and the Z score is 0.67.
As for `Nc1nc2ccc(S(=O)(=O)N3CCCC3)cc2s1`, the “% Inhibition” value is given as -5% and the Z score came to 0.52.
In the same order, the values of `O=C(c1ccccc1)N1CCc2nc(N3CCc4ccccc4C3)nc(Oc3cccc(F)c3)c2C1` are -11% and 1.38.
As for `CC(=O)c1ccc(F)c(-c2ccc(C(=O)N[C@H]3CCCNC3=O)cc2)c1`, the “% Inhibition” value was determined as 2% and the Z score was -0.36.
With `Cc1cccc(-c2noc([C@@H]3CCCN3S(=O)(=O)c3ccc(C)c(C)c3)n2)c1`, the “% Inhibition” value is listed as -3% and the Z score is given as 0.5.
Taken in the same sequence, the figures for `O=C(Nc1cc2c(nn1)CCC2)N1CCC[C@H](CCO)CC1` were -19% and 3.6.
In the same order, the values of `O=C(Cn1cnc(C2CC2)n1)NCC1CC1` are 0% and -0.02.
For the molecule `O=C(Nc1ccccc1F)c1nc(-c2cn(-c3ccc(F)cc3)nn2)no1`, the “% Inhibition” value is given as -10% and the Z score amounted to 2.02.
In the same order, the values of `CN(C)C(=O)c1cnc(N(C)C)nc1[C@H]1CCN(C(=O)C2CCC2)C1` are -20% and 2.39.
`C[C@H]1CN(c2ccncc2F)C[C@]1(O)C1CC1`: the “% Inhibition” value was -13% and the Z score was 2.56.
Taken in the same sequence, the figures for `CC(C)(O)Cn1nc(COc2ccc(F)cc2)nc1-c1cc(C#N)c[nH]1` were 1% and -0.19.
Turning to `Cc1cc(S(=O)(=O)N[C@@]2(CC(=O)O)CCCOC2)c(C)s1`, the “% Inhibition” value is listed as -3% and the Z score is 0.58.
Taken in the same sequence, the figures for `Cc1cc(C)cc(CN2CCN(Cc3cccnc3N)CC2=O)c1` were -4% and 0.6.
Taken in the same sequence, the figures for `COC(=O)c1c(NC(=O)C2CCCO2)c2cc(NC(C)CCn3cccn3)cnc2n1CCc1ccccc1` (stereo not given) were 4% and -0.56.
Take `CCc1ccc(S(=O)(=O)N2CCC3(CC2)N=C(c2ccccc2)C(=O)N3)cc1`: the “% Inhibition” value is reported as -3% and the Z score is listed as 0.51.
`Cc1cc2ncc(C(C)NCC(C)N3CCOCC3C)c(C)n2n1` (stereo not given): the “% Inhibition” value is on record as -4% and the Z score is listed as 0.44.
As to `CCOc1cc(CNCCNS(C)(=O)=O)c(Cl)cc1OC(C)C`, the “% Inhibition” value amounted to 9% and the Z score is -1.33.
`CCc1nnc(NS(=O)(=O)c2ccc(OC(C)C)cc2)o1`: the “% Inhibition” value was -9% and the Z score is 1.26.
Taken in the same sequence, the figures for `O=C1[C@@H]2CCCN2C(=O)CN1CCc1ccccc1` were 0% and 0.
Take `O=C(Cc1ccccc1O)N[C@H]1CCCN(C2CCCC2)C1`: the “% Inhibition” value was found to be 0% and the Z score is given as -0.04.
With `O=C(NCCOC(=O)c1ccccc1F)c1ccccc1`, the “% Inhibition” value is on record as -12% and the Z score came out at 1.69.
Consider `O=C(NCc1cccc(Cl)c1O)N[C@H](C1CCC1)C1CC1`, for which the “% Inhibition” value turned out to be 6% and the Z score is reported as -1.2.
For the molecule `CNc1snc(C)c1C(=O)N1CCC(OCC(C)C)CC1`, the “% Inhibition” value was -3% and the Z score was determined as 0.51.
For the molecule `O=C(NCCCN1CCOCC1)c1ccc2nc(-c3ccc(F)cc3)c(-c3ccc(F)cc3)nc2c1`, the “% Inhibition” value was -14% and the Z score was 1.63.
In the same order, the values of `O=C1CCCN1Cc1nc(-c2ccc(F)cc2)no1` are -3% and 0.4.
Taken in the same sequence, the figures for `N#Cc1cnc(N2CCC[C@H](c3nncn3C3CC3)C2)c(Cl)c1` were -15% and 1.48.
Take `O=C(NCCc1nc(-c2ccsc2)no1)OCC(F)(F)F`: the “% Inhibition” value is on record as 4% and the Z score was -0.59.
As to `Cc1noc(C)c1S(=O)(=O)N1CCC[C@H]1c1nnc(C(C)C)[nH]1`, the “% Inhibition” value is given as -11% and the Z score is given as 1.38.
As to `C[C@H]1c2cc(Cl)cc(Cl)c2CCN1c1c(C#N)c(=O)n(C)c(=O)n1C`, the “% Inhibition” value is -3% and the Z score is reported as 0.5.
In the same order, the values of `COc1ccccc1NC(=O)Nc1ccccc1N1CCCC1` are 0% and -0.05.
In the case of `COCCCN(CC(=O)N(CCc1c[nH]c2ccccc12)Cc1ccc(OC)c(OC)c1)C(=O)C(c1ccccc1)c1ccccc1`, the “% Inhibition” value is reported as 8% and the Z score was -0.96.
Consider `CCNC(=O)[C@@H]1C[C@@H](n2cc(-c3ccc(F)cc3)nn2)CN1`, for which the “% Inhibition” value was -8% and the Z score was 1.36.
With `Brc1ccc(N2CCC(CN3CCOCC3)CC2)nc1`, the “% Inhibition” value is reported as 5% and the Z score is given as -0.73.
Taken in the same sequence, the figures for `C[C@H]1CCCCN1C(=O)c1cnn2ccccc12` were -3% and 0.53.
Taken in the same sequence, the figures for `Cc1nc(NC(=O)N2CCOCC2CC(O)c2cccs2)sc1C` (stereo not given) were 31% and -0.39.
In the case of `COc1ccc(-c2noc(Cn3c(=O)c4ccccc4n(CC(=O)Nc4cc(C)ccc4C)c3=O)n2)cc1`, the “% Inhibition” value worked out at 30% and the Z score came to 0.01.
In the same order, the values of `O=C(NC(c1ccccc1)C1CC1)C1CCCN(C(=O)c2cccs2)C1` (stereo not given) are 4% and -0.42.
Taken in the same sequence, the figures for `C[C@H](NC(=O)N1CCc2ccc(F)cc2C1)c1noc(Cc2ccccc2)n1` were -11% and 1.48.
With `CCCCN(CCc1nc(-c2ccc(C)cc2)no1)C(=O)c1ccco1`, the “% Inhibition” value was -15% and the Z score is 2.22.
`O=C(CN1CCCNC1=O)N[C@@H](Cc1ccccc1)c1cccs1`: the “% Inhibition” value turned out to be 0% and the Z score is reported as -0.01.
Taken in the same sequence, the figures for `c1ccc2cc(-c3noc([C@@H]4Cc5[nH]cnc5CN4CC4CCCCC4)n3)ccc2c1` were -1% and 0.12.
Taken in the same sequence, the figures for `CC1(C)C[C@@](C)(c2ccccc2)c2ccccc2N1C(=O)COc1ccc(Cl)cc1Cl` were 11% and -1.33.
For the molecule `COc1ccc(F)cc1CC(=O)N1C2CCC1CC(=O)NC2` (stereo not given), the “% Inhibition” value is recorded as -8% and the Z score turned out to be 1.44.
In the same order, the values of `O=C(Nc1nnc(-c2cccs2)o1)c1cnccn1` are -2% and 0.21.
Taken in the same sequence, the figures for `COc1ccc(CNC(=O)c2ccc(CN3C(=O)CCn4nccc43)cc2)cc1OC` were 28% and -3.31.
In the same order, the values of `Cc1nnc(NCc2cccs2)c(C#N)c1C` are 9% and -0.89.
Consider `Cc1noc(C)c1CCCNC1CC2CCC1C2` (stereo not given), for which the “% Inhibition” value is 4% and the Z score is recorded as -0.57.
Turning to `Cc1ccc([C@@H](C)CCN(C)CC2(C)COC2)o1`, the “% Inhibition” value is -4% and the Z score was determined as 0.68.
For the molecule `COc1ccc(C(=O)NC[C@@]23CCC=C2N(CC2CC2)C(=O)CC3)cc1`, the “% Inhibition” value is -14% and the Z score was determined as 2.05.
In the same order, the values of `Cc1ccc(C(=O)Nc2ccsc2-c2nnc(C3CC3)o2)c(C)c1` are -5% and 0.49.
In the same order, the values of `COc1nc(/C=C/C2CCCCC2)ncc1F` are -10% and 1.84.
In the same order, the values of `COc1ccccc1CN(C(=O)c1ccc(C)cc1)c1ccc(CC(=O)NCCN2CCCCC2)cc1` are 46% and -7.09.
Regarding `COC(=O)c1ccc(CN2CCC3(CCCN3C)CC2)cc1`, the “% Inhibition” value is -2% and the Z score is reported as 0.17.
In the same order, the values of `CCc1nn(C)c(Cl)c1CN1CCN(C(=O)c2cccs2)CC1` are 5% and -0.84.
Consider `Cc1nc2sc([C@H](c3ccc(C)o3)N3CCCCCC3)c(O)n2n1`, for which the “% Inhibition” value amounted to 10% and the Z score was -1.25.
For the molecule `CCOC(=O)N1CCCC[C@H](c2ccccc2)C1`, the “% Inhibition” value is -13% and the Z score came to 2.06.
In the same order, the values of `O=S(=O)(NCc1cccc(C(F)(F)F)c1)NCC(F)(F)F` are -2% and 0.33.
In the case of `O=C(CCC(F)(F)F)N[C@H]1CN(C2CCCC2)C[C@@H]1C1CC1`, the “% Inhibition” value is -1% and the Z score was found to be 0.13.
As to `CCS(=O)(=O)Nc1cccc(C)c1C#N`, the “% Inhibition” value was -16% and the Z score amounted to 2.31.
In the case of `Cn1cncc1C(=O)N1CC2(C)CN(Cc3ccccc3)CC2(C)C1` (stereo not given), the “% Inhibition” value is given as -1% and the Z score worked out at 0.29.
Taken in the same sequence, the figures for `O=C1O[C@H](N2CCc3ccccc3C2)c2ccccc21` were 37% and -4.16.
Turning to `O=C(N[C@H]1C[C@H](C(=O)O)C1)[C@@H]1CCc2cc(F)ccc21`, the “% Inhibition” value was -10% and the Z score was 1.93.
